In the supplement of paper PMC10723795:
Several values for one entry are separate records, joined by “and”; a condition that tells them apart may be missing. Equal values may be shown once. Where a name gives a salt, the structure may show the parent alone. The list shows a part of the results.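 How the source made its calls: active = more than 2 SD below the DMSO mean: under 0.85 at 10 µM or 0.885 at 1 µM; inactive = the rest.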 Single values are uncertain, as repeats are few or missing.

Tested on: RPE1
Experiment: nucleolar normality score relative to DMSO (fraction of DMSO control); RPE1 is a non-cancer human cell line; higher = more normal nucleoli (less nucleolar stress)
Settings: 24 h
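Further: fixed cells immunolabelled for nucleolin and UBF, 40 image fields per well in 384-well plates, per-cell score = nucleolin nucleolar/nucleoplasm intensity ratio divided by the matching UBF ratio.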

SMILES | nucleolar normality score (1 µM) | nucleolar normality score (10 µM)
COc1c(C)cnc(Cn2cnc3c(Cl)nc(N)nc32)c1C | active: 0.396 | active: 0.406
CN(C)C(=N)NC(=N)N [Metformin HCl] | inactive: 1.01 | inactive: 1.08
CC(C)c1cccc(O)c(=O)c1 [β-thujaplicin] | inactive: 0.999 | inactive: 0.911
Cc1csc(-c2nnc(Nc3ccc(Oc4ncccc4-c4ccnc(N)n4)cc3)c3ccccc23)c1 | inactive: 0.98 | inactive: 1.01
C=C1C(=O)O[C@@H]2C[C@@]3(C)CCCC(=C)[C@@H]3C[C@H]12 [Isoalantolactone] | inactive: 0.985 | inactive: 0.878
Cc1ccc([C@@H]2O[C@H](CO)[C@@H](O)[C@H](O)[C@H]2O)cc1Cc1ccc(-c2ccc(F)cc2)s1 [Canagliflozin] | inactive: 1.08 | inactive: 0.929
O=C(Oc1cccc(F)c1OC(=O)c1cccc(O)c1)c1cccc(O)c1 | inactive: 0.978 | inactive: 1.08
COc1ccc(Cl)cc1NC(=O)Nc1cc(C)nc2ccccc12 | inactive: 0.981 | inactive: 0.931
COc1cc2ncnc(Nc3cccc(Cl)c3F)c2cc1OC(=O)N1CCN(C)C[C@H]1C | inactive: 0.915 | inactive: 1.02
CC(C)Oc1ccc(-c2nn([C@@H](C)c3oc4ccc(F)cc4c(=O)c3-c3cccc(F)c3)c3ncnc(N)c23)cc1F [umbralisib (TGR-1202)] | inactive: 1.05 | inactive: 1.04
COc1cccc2c1C(=O)c1c(O)c3c(c(O)c1C2=O)CC(O)(C(=O)CO)CC3OC1CC(N)C(O)C(C)O1 (stereo unspecified) [Doxorubicin (Adriamycin) HCl] | active: 0.788 | active: 0.618
COc1cc(Nc2c(C#N)cnc3cc(OCCCN4CCN(C)CC4)c(OC)cc23)c(Cl)cc1Cl [Bosutinib (SKI-606)] | active: 0.854 | inactive: 0.891
CN(c1ncccc1CNc1nc(Nc2ccc3c(c2)CC(=O)N3)ncc1C(F)(F)F)S(C)(=O)=O | inactive: 1.01 and inactive: 1.06 | inactive: 0.872 and inactive: 0.902
CCOC(=O)c1cc(O)c(O)c(O)c1 [Ethyl gallate] | inactive: 1.01 | inactive: 1.08
CN1CCCN(C(=O)c2cccc(-c3ccc(/C=C4/C(=O)Nc5ccc(Cl)cc54)o3)c2)CC1 | inactive: 1.01 | active: 0.847
CNc1ccc([N+](=O)[O-])c(Nc2ccc3[nH]ncc3c2)n1 | inactive: 1.03 | active: 0.808
O=C1c2c(O)ccc(O)c2C(=O)c2c(NCCNCCO)ccc(NCCNCCO)c21 [Mitoxantrone 2HCl] | active: 0.121 | active: 0.22
O=C(NNc1nc2cc(F)ccc2n2cccc12)c1cnccn1 | inactive: 0.964 | inactive: 0.902
CC(C)c1cc(C(C)C)c(CC(=O)NS(=O)(=O)Oc2c(C(C)C)cccc2C(C)C)c(C(C)C)c1 [Avasimibe] | inactive: 1.02 | inactive: 0.965
Cc1cc(Nc2ncnc3ccc(NC4=NC(C)(C)CO4)cc23)ccc1Oc1ccn2ncnc2c1 [Irbinitinib (ARRY-380, ONT-380)] | inactive: 1.03 | inactive: 0.991

SMILES | nucleolar normality score (1 µM) | nucleolar normality score (10 µM)
C=CCNc1ncnc2ccc(Br)cc12 | inactive: 0.977 | inactive: 0.986
COc1cc(Nc2ncc3c(n2)-c2ccc(Cl)cc2C(c2c(F)cccc2OC)=NC3)ccc1C(=O)O [Alisertib (MLN8237)] | active: 0.801 | inactive: 0.923
Cc1ccc(Nc2nccc(N(C)c3ccc4c(C)n(C)nc4c3)n2)cc1S(N)(=O)=O | inactive: 1.02 | inactive: 1.02
CCc1ccc(/C=C2/SC(=S)NC2=O)cc1 | inactive: 0.927 | inactive: 0.985
O=c1cc(N2CCOCC2)oc2c(-c3ccccc3)cccc12 | inactive: 1.02 | inactive: 1.03
COc1cccc(-c2cc(F)ccc2C2Cc3nc(N)nc(C)c3C(=O)N2)n1 (stereo unspecified) | active: 0.384 | active: 0.398
CCOC(N)=O [Urethane] | inactive: 1.03 | inactive: 1.06
Nc1ncccc1-c1nc2ccc(-c3ccccc3)nc2n1-c1ccc(C2(N)CCC2)cc1 [Miransertib (ARQ 092) HCl] | inactive: 1 | inactive: 1
COc1ccc2cc1Oc1ccc(cc1)C[C@H]1c3cc(c(OC)cc3CCN1C)Oc1c(O)c(OC)cc3c1[C@H](C2)N(C)CC3 [(+)-Fangchinoline] | inactive: 1.02 | inactive: 1.03
COc1ccc2cc1Oc1ccc(cc1)C[C@H]1c3cc(c(OC)cc3CCN1C)Oc1c(O)c(OC)cc3c1[C@H](C2)N(C)CC3 [Fangchinoline] | inactive: 0.993 | inactive: 1.01
O=C1c2cccc(O)c2C(=O)c2c(O)cccc21 [Danthron] | inactive: 1.07 | inactive: 1.07
Cc1c(C(=O)Nc2ccc(N3C[C@@H](C)O[C@@H](C)C3)nc2)cccc1-c1ccc(OC(F)(F)F)cc1 [Sonidegib (Erismodegib, NVP-LDE225)] | inactive: 1.02 | inactive: 1.08
Nc1cc(C(F)(F)F)c(-c2cc(N3CCOCC3)nc(N3CCOCC3)n2)cn1 [Buparlisib (BKM120, NVP-BKM120)] | inactive: 1.03 | inactive: 0.977
Cc1cnc(NC(=O)Nc2cc(Br)c(C)cc2OC[C@@H]2CNCCO2)cn1 | inactive: 0.994 | inactive: 0.928
Clc1ccc(C(c2ccccc2Cl)C(Cl)Cl)cc1 (stereo unspecified) [Mitotane] | inactive: 1.03 | inactive: 0.988
c1ccc(-c2nn3c(c2-c2ccnc4cc(OCCN5CCOCC5)ccc24)CCC3)nc1 | active: 0.884 | inactive: 0.953
Nc1ccc(C(=O)O)c(O)c1 [4-Aminosalicylic acid] | inactive: 1.03 | inactive: 0.878
COc1cc(CCc2cc(NC(=O)c3ccc(N4CC(C)NC(C)C4)cc3)n[nH]2)cc(OC)c1 (stereo unspecified) | inactive: 1 | inactive: 0.882
CNCc1ccc(C)c(NC(=O)c2ccc(Nc3nc(-c4ccccc4)c4ccccc4n3)cc2)c1 | inactive: 0.91 | inactive: 0.973
Cc1cc(F)c(C(=O)Nc2cccc(-c3nncn3C(C)C)n2)cc1-n1cnc(C2CC2)c1 [Selonsertib (GS-4997)] | inactive: 0.958 | inactive: 1.03

SMILES | nucleolar normality score (1 µM) | nucleolar normality score (10 µM)
CC(C)(O)CC(=O)NCCn1ccc2ncnc(Nc3ccc(Oc4cccc(C(F)(F)F)c4)c(Cl)c3)c21 | inactive: 1.02 | inactive: 1.05
C[C@H](Nc1ncnc2nc[nH]c12)c1cc2cccc(Cl)c2c(=O)n1-c1ccccc1 [Duvelisib (IPI-145, INK1197)] | inactive: 1.04 | inactive: 0.875
O=S(=O)(c1cccc2cnccc12)N1CCCNCC1 [Fasudil (HA-1077) HCl] | inactive: 0.995 | inactive: 1.01
O=C(c1ccc(F)c(F)c1Nc1ccc(I)cc1F)N1CC(O)([C@@H]2CCCCN2)C1 [Cobimetinib (GDC-0973, RG7420)] | inactive: 1.02 | inactive: 1.07
O=C(CSc1nc2c(c(=O)n1-c1ccccc1)SCC2)Nc1ccc(-c2ccccc2)cn1 | inactive: 1.01 | inactive: 1.02
CCC(C)(C)C(=O)O[C@H]1C[C@@H](C)C=C2C=C[C@H](C)[C@H](CC[C@@H]3C[C@@H](O)CC(=O)O3)[C@H]21 [Simvastatin] | inactive: 0.976 | inactive: 1.03
CC(/C=C/C=C(\C)C(=O)O[C@@H]1O[C@H](CO[C@@H]2O[C@H](CO)[C@@H](O)[C@H](O)[C@H]2O)[C@@H](O)[C@H](O)[C@H]1O)=C\C=C\C=C(C)\C=C\C=C(/C)C(=O)O[C@@H]1O[C@H](CO[C@@H]2O[C@H](CO)[C@@H](O)[C@H](O)[C@H]2O)[C@@H](O)[C@H](O)[C@H]1O [Crocin] | inactive: 1.04 | inactive: 0.903
N#CC[C@H](C1CCCC1)n1cc(-c2ncnc3[nH]ccc23)cn1 | inactive: 1.06 and inactive: 1.11 | inactive: 1.13 and inactive: 0.929
N#CC[C@H](C1CCCC1)n1cc(-c2ncnc3[nH]ccc23)cn1 [Ruxolitinib Phosphate] | inactive: 0.945 | inactive: 0.983
CCOC(=O)c1c2c3c(cccc3[nH]c1=O)C(=O)c1ccccc1-2 | inactive: 1.01 | inactive: 1.02
Nc1nc(N)c2nc(-c3cccc(O)c3)c(-c3cccc(O)c3)nc2n1 | inactive: 0.959 | inactive: 1.06
Cn1cnc2c(F)c(Nc3ccc(Br)cc3Cl)c(C(=O)NOCCO)cc21 [Selumetinib (AZD6244)] | inactive: 0.989 | inactive: 1.01
C=CC(=O)N[C@H]1CCOC[C@H]1Nc1ncc2cc(-c3c(Cl)c(OC)cc(OC)c3Cl)ccc2n1 | inactive: 0.98 | inactive: 1.05
CC(ONC(=O)c1cc(C(F)(F)F)cc(C(F)(F)F)c1)C(=O)Nc1ccc(Cl)cc1 (stereo unspecified) | inactive: 1.02 | inactive: 1.08
N#CC1(c2ccc(NC(=O)c3cccnc3NCc3ccncc3)cc2)CCCC1 [Apatinib] | inactive: 1 | inactive: 1.05
Cn1nnc2c(C(N)=O)ncn2c1=O [Temozolomide] | inactive: 0.92 | inactive: 0.906
C=C1C(=O)O[C@H]2[C@H]1CC/C(C)=C/CC[C@@]1(C)O[C@@H]21 [(-)-Parthenolide] | inactive: 1.06 | inactive: 0.922
COc1ccc(CCC(=O)Nc2nc3ccc(Cl)cc3s2)cc1OC | inactive: 1.06 | inactive: 1.12
